Source: PubChem BioAssay AID1347417 (National Center for Advancing Translational Sciences (NCATS), 2020)
Among all 120,000 compounds or so, about 5,300 (4.4%) were called active. The shares of active, inactive and inconclusive entries below differ from those in the screen. Calls follow the shape of the dose curve; as a rule, active = well fitted inhibition curve with a large enough effect; inconclusive = small, poorly fitted or top-dose-only effect; inactive = no such curve, though single readings can be large or run the other way. Where the call is inconclusive, the potency comes from a doubtful curve fit.

test: qHTS Primary assay for Inhibitors of Plasmodium falciparum Dd2 growth in vitro; also: nearly all actives have a fitted effect of over 65% in size;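 as to activity, negative = inhibition: plate controls were DMSO vehicle for no effect and reference drug for full effect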; conditions: P. falciparum Dd2 growth, SYBR Green, 72 h; activity, negative = inhibition: at 28.9 µM (top of the series) unless noted; series mostly up to 28.9 µM
How it was run: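 Readout: SYBR Green fluorescence, 485 nm excitation, 535 nm emission, after ~16 h lysis at 37C. Before that, Dd2-infected red cells (2.5% hematocrit) grew 72 h with compound, 29 uM top final concentration.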
Potency is read from the fitted curve at half-maximal effect; tags tell the direction and shape of the fitted curve.

Row | SMILES | Potency | outcome | activity, negative = inhibition
1 | Cc1nnc(NC(=O)CSc2nc3c([nH]c4ccccc43)c(=O)n2-c2cccc(Cl)c2)s1 | inconclusive: 8.91 µM [inhibitor, single point] |  | 
2 | O=C(c1cccs1)N1CCC(N2C(=O)C(O)C23CCCCC3)CC1 (stereo unspecified) | inconclusive: 12.6 µM [inhibitor, single point] |  | 
3 | COc1cccc(CNCc2c(C(=O)O)n(Cc3ccc(C)cc3)c3cc(C)ccc23)c1OC | active: 10 µM |  | 
4 | CS(=O)(=O)c1ccc(CN2CCC[C@H]2c2nc(-c3ccnc(N4CCC(C(N)=O)CC4)c3)no2)cc1 | inconclusive: 17.8 µM [inhibitor, single point] |  | 
5 | O=c1oc2c(CN3CCOCC3)c(O)ccc2cc1-c1ccccc1 | inconclusive: 1.78 µM [inhibitor, full curve, poor fit] |  | 
6 | COc1ccc(C2(C(=O)N3CCC4(CC3)CC(N(C(C)=O)C3CC3)CCO4)CC2)cc1 (stereo unspecified) |  | inactive | 
7 | CC(C)(C)CN1CCNc2cc(Nc3ccccc3)ncc2C1 | inconclusive: 5.01 µM [inhibitor, single point] |  | 
8 | Cc1ccc(N2C(=O)CSC23C(=O)N(CC(=O)NCCc2ccccc2)c2ccccc23)cc1 (stereo unspecified) |  |  | inactive: -14.9%
9 | CN(Cc1ccccc1)C[C@H]1CN2CC[C@H]1C[C@@H]2CNC(=O)Nc1ccccc1 | inconclusive: 7.94 µM [inhibitor, partial curve, poor fit] |  | 
10 | O=C(Cn1nc2n(c1=O)CCCC2)Nc1ccc(F)cc1 |  |  | inactive: 3.8%
11 | CN(Cc1ccccc1C(F)(F)F)Cc1cccn1C | inactive |  | 
12 | CCC(C)NC(=O)C(NC(=O)c1ccc(C)cc1)C1CCN(C(=O)c2ccccc2C)CC1 (stereo unspecified) | inconclusive: 10 µM [inhibitor, single point] |  | 
13 | COCCC(=O)N1CCC(N2C(=O)C(OC)C23CCOCC3)CC1 (stereo unspecified) | inconclusive: 8.91 µM [inhibitor, partial curve, poor fit] |  | 
14 | Cc1cccc(C)c1CN1CCCC12Cc1ccccc1CNC2=O (stereo unspecified) | active: 2.51 µM |  | 
15 | O=C(Cc1cccs1)N1CCN(c2cc(C(F)(F)F)ncn2)CC1 | inconclusive: 20 µM [inhibitor, single point] |  | 
16 | Cc1ccc(C(=O)N2c3nc(-c4ccco4)nn3C3(CCCCC3)[C@@H]3CCCC[C@@H]32)cc1 | inconclusive: 17.8 µM [inhibitor, single point] |  | 
17 | O=c1n(-c2ccc(C(F)(F)F)cc2)nc2n1CCN(Cc1ccc(C(F)(F)F)cc1)C2 | inconclusive: 5.01 µM [inhibitor, partial curve, poor fit] |  | 
18 | Cc1noc(-c2cn(C3CCN(C(=O)c4sccc4C)C3)nn2)n1 (stereo unspecified) |  | inactive | 
19 | COCCN1C(=O)c2cccn2CC1CNS(=O)(=O)c1c(C)noc1C (stereo unspecified) |  |  | inactive: -0.664%
20 | Cc1ccc(CNC(=O)N2CCC(OC3CCN(Cc4ccccc4)CC3)CC2)cc1 | inconclusive: 8.91 µM [inhibitor, single point] |  | 
21 | O=C(NCCC1=CCCCC1)c1ccc2c(c1)ncn2-c1cccc(Cl)c1 | inconclusive: 17.8 µM [inhibitor, single point] |  | 

Row | SMILES | Potency | outcome | activity, negative = inhibition
22 | CCOc1ccc(-c2cc(C)n3nc(C(=O)Nc4cc(Cl)ccc4O)cc3n2)cc1 | inconclusive: 1 µM [inhibitor, partial curve, poor fit] |  | 
23 | Cc1ccc(S(=O)(=O)N2CCCC(CCC(=O)N3CCc4ccccc4C3)C2)cc1 (stereo unspecified) | inconclusive: 8.91 µM [inhibitor, partial curve, poor fit] |  | 
24 | COc1cccc(NC(=O)Cn2c(=O)n(Cc3nc(-c4ccccc4)no3)c(=O)c3ccccc32)c1 | inconclusive: 15.8 µM [inhibitor, partial curve, poor fit] |  | 
25 | Cc1ccc(Cl)cc1NC(=O)NCC1CCOCC1 | inconclusive: 2.24 µM [inhibitor, partial curve, poor fit] |  | 
26 | COc1ccc(OC)c(CNC(=O)c2cc(=O)[nH]c3ccc(S(=O)(=O)N4CCCCC4C)cc23)c1 (stereo unspecified) | inconclusive: 10 µM [inhibitor, single point] |  | 
27 | COc1cc2c(cc1OC)C(CNC(=O)c1cccs1)N(C(=O)Nc1cccc(F)c1)CC2 (stereo unspecified) | inconclusive: 1 µM [inhibitor, full curve] |  | 
28 | COc1ccc(-c2nc3cc(NC(=O)COc4ccc(F)cc4)ccc3o2)cc1 | inconclusive: 17.8 µM [inhibitor, single point] |  | 
29 | O=C(O)C1CCc2nnc(C3CCN([S+](=O)([O-])c4cc(C(F)(F)F)cc(C(F)(F)F)c4)CC3)n21 (stereo unspecified) |  |  | inactive: 19.1%
30 | CC(=O)NCCNC[C@@H]1C=C(C)[C@H](Cc2nnc(-c3ccccc3)o2)C[C@H]1C(C)C | inconclusive: 1.41 µM [inhibitor, partial curve] |  | 
31 | COc1ccc(NC(=O)Cn2ccn3nc4c(c3c2=O)CC(C)CC4)cc1Cl (stereo unspecified) | inconclusive: 10 µM [inhibitor, single point] |  | 
32 | CCOC(=O)c1cccc(NS(=O)(=O)c2cc(Br)cc3c2N(C(=O)C2CC2)CC3)c1 | inconclusive: 12.6 µM [inhibitor, single point] |  | 
33 | COCc1cc(CC2(NCc3ccc(C#N)cc3)COC2)no1 |  |  | inactive: -10.1% [at 44.1 µM]
34 | COc1ccc2c(c1)NC(c1ccc(F)cc1)=NC(c1ccc(F)cc1)=N2 | inconclusive: 8.91 µM [inhibitor, single point] |  | 
35 | OCCOc1ccccc1CN1CCCC(Nc2ccc(F)c(F)c2)C1 (stereo unspecified) | inconclusive: 7.08 µM [inhibitor, partial curve] |  | 
36 | CC(C)CCNC(=O)CC1CCCN(c2cnn(C)c(=O)c2)C1 (stereo unspecified) |  |  | inactive: -5.46%
37 | Cc1ccc(CCNC(=O)c2ccc3c(c2)N(Cc2cc(C)ccc2C)C(=O)c2ccccc2S3=O)cc1 (stereo unspecified) | inconclusive: 3.16 µM [inhibitor, single point] |  | 
38 | Cc1cc(C)c2[nH]c(C(=O)N3CCN(Cc4ccccc4)C(=O)C3C)c(C)c2c1 (stereo unspecified) |  |  | inactive: -18.4%
39 | COc1ccc(-c2noc(CC3CCN(C(=O)Cc4ccc(C)cc4)CC3)n2)cc1 |  |  | inactive: -16%
40 | Cc1ccc(/C=C/c2onc(C)c2S(=O)(=O)N2CCC(C(=O)NCc3ccco3)CC2)cc1 | inconclusive: 2.24 µM [inhibitor, full curve] |  | 
41 | C[S+](=O)([O-])N1CC2(CCCN(C3CCCCC3)C2)Cc2ccccc21 (stereo unspecified) | inconclusive: 10 µM [inhibitor, single point] |  | 
